Data as given in PubChem BioAssay AID602310 (National Center for Advancing Translational Sciences (NCATS), 2012).
About 310 (0.076%) of roughly 410,000 compounds were called active. This list was built around the results that the source calls inconclusive (neither active nor inactive); the mix of calls is not that of the screen. The call rests on the fitted dose curve; in most records, active means well fitted curve in the direction sought with a large enough effect; inconclusive means small, poorly fitted or top-dose-only effect; inactive means flat fitted curve, though single readings scatter. Potencies of inconclusive entries are doubtful fits and often do not repeat.

target: DNA dC->dU-editing enzyme APOBEC-3G (Homo sapiens) (UniProt Q9HC16); test: qHTS for Inhibitors of Vif-A3G Interactions: qHTS; details: HeLa A3G-eYFP + Vif (tagged APOBEC3G with the HIV-1 protein that degrades it), YFP fluorescence, overnight; series mostly up to 46.1 µM; activity, negative = active: at the top concentration; further: nearly all actives have a fitted effect of over 60% in size;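 on activity, negative = active: hits raise eYFP signal because A3G escapes Vif-driven loss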
UniProt Q9HC16, sequence (Q9HC16 whole entry, looked up): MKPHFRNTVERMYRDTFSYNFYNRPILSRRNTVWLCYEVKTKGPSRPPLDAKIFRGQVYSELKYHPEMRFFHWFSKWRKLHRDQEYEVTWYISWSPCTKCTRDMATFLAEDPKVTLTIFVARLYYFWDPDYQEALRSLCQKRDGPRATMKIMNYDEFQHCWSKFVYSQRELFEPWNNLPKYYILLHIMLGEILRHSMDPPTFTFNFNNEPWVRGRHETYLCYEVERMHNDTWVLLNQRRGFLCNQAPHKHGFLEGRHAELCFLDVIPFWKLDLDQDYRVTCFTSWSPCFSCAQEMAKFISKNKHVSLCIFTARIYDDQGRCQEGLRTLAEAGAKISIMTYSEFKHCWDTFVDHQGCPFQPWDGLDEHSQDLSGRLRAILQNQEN
In short: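 HeLa cells stably expressing Vif and C-terminally eYFP-tagged A3G, seeded overnight at 37 deg C, then exposed to compound by pintool overnight at 37 deg C. Rise in yellow fluorescence (Ex 488/Em 500-530, Acumen) marks blocked Vif-driven A3G degradation.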
On the % scale 0 is the no-effect control and ±100 the full control effect; potency means the concentration at half of the fitted maximal effect; tags describe the fitted curve by direction and shape.

| SMILES | activity, negative = active | Potency |
| --- | --- | --- |
| Cc1ccc(/C=N/Nc2nc3ccccc3s2)o1 | inactive: 0.959% |  |
| COc1ccc(Br)cc1CNC(=O)c1ccc2c(c1)nc1n2CCCCC1 |  | inconclusive: 22.4 µM [inhibitor, single point] |
| C#CCOCCOCCOCCNc1nc(N2CCN(C(=O)CCCCCCCCCCNC(=O)[C@H](CO)n3cc(CCCSC)nn3)CC2)nc(N2CCN(C(=O)CCCCCCCCCCNC(=O)[C@H](CCCCN)n3cc(CCO)nn3)CC2)n1 | inactive: -12.7% |  |
| O=C(Nc1ccc(O)cc1)c1cc2n(n1)C(C(F)(F)F)CC(c1ccco1)N2 (stereo not given) |  | inconclusive: 5.01 µM [inhibitor, full curve, poor fit] |
| COc1ccc(CC(=O)Nc2cccc(-c3nnc(-c4ccccc4)o3)c2)cc1OC | inactive: -10.2% |  |
| c1ccc2c(c1)CCc1c(-c3ccncc3)n[nH]c1-2 |  | inconclusive: 12.6 µM [inhibitor, partial curve, poor fit] |
| CCN1C(=S)SC(=O)C1=C1C=C(C)N(Cc2ccco2)C(C)=C1 |  | active: 11.2 µM |
| O=C(C(=O)N(Cc1ccccc1)Cc1ccccc1)c1c(-c2ccccc2)[nH]c2ccccc12 | inactive: -3.77% |  |
| O=C(NCCCN1CCCCC1)c1cc(Sc2ccc(Cl)cc2)nc2ccccc12 | inactive: 3.35% |  |
| Cc1ccc2c(=O)c(C(=O)c3ccccc3)cn(CC(=O)Nc3ccccc3)c2n1 |  | inconclusive: 31.6 µM [inhibitor, single point] |
| CC(C)(C)c1nc2ccccc2c2nnc(SCC(=O)Nc3nccs3)n12 |  | inconclusive: 0.891 µM [inhibitor, full curve, poor fit] |
| COc1ccccc1NC(=O)/C(C#N)=C/C=C/c1ccco1 |  | inconclusive: 0.891 µM [inhibitor, full curve, poor fit] |
| Cc1c(=O)n(OCc2ccc(Cl)cc2)c2ccccc2[n+]1[O-] |  | inconclusive: 20 µM [inhibitor, partial curve, poor fit] |
| O=[N+]([O-])c1ccc(O/N=[N+](\[O-])N2CCN(c3ccccc3)CC2)c([N+](=O)[O-])c1 |  | inconclusive: 10 µM [inhibitor, partial curve] |
| OCC[N+]1(CCc2ccccc2)CCOCC1 | inactive: -0.483% |  |
| Fc1ccc(/C=N/Nc2nc(-c3cccnc3)nc3ccccc23)cc1 |  | inconclusive: 20 µM [inhibitor, single point] |
| Cc1ccc(S(=O)(=O)c2nnn3c2nc(N2CCN(c4ccccc4F)CC2)c2ccccc23)cc1C | inactive: -0.913% |  |
| COc1cccc(C2=CC(c3ccc(N(C)C)cc3)n3nnnc3N2)c1 (stereo not given) |  | inconclusive: 7.08 µM [inhibitor, partial curve, poor fit] |
| N#C/C(=C/c1ccc(N2CCOCC2)o1)c1ccc(Br)cc1 |  | inconclusive: 3.55 µM [inhibitor, partial curve, poor fit] |
| Cn1nccc1NC(=O)Nc1ccc(Cl)cc1 | inactive: -2.76% |  |
| CCC(=O)Nc1nc(-c2ccc3c(c2)OCCO3)cs1 | inactive: 2.52% |  |
| CSc1nnc(-c2sc3cc(C(F)(F)F)cnc3c2-c2ccccc2)n1C |  | inconclusive: 3.55 µM [inhibitor, full curve, poor fit] |
| COC(=O)c1scc(S(=O)(=O)C(C)C)c1N/N=C(\C#N)C(=O)c1ccc(Cl)cc1 | inactive: -0.114% |  |
| C[C@@H](NC(=O)c1nc[nH]c1C(=O)N1CCN(C(=O)OC(C)(C)C)CC1)c1ccccc1 |  | inconclusive: 22.4 µM [inhibitor, single point] |

| SMILES | activity, negative = active | Potency |
| --- | --- | --- |
| Cc1ccc(Cl)cc1NC(=O)CN(C)S(=O)(=O)c1ccc2c(c1)n(C)c(=O)c(=O)n2C | inactive: -1.71% |  |
| Cn1nnnc1Sc1ncnc2scc(-c3ccc(Br)cc3)c12 |  | inconclusive: 2 µM [inhibitor, full curve] |
| Cc1ccc2oc(C(=O)N(Cc3ccccc3F)C3CCS(=O)(=O)C3)c(C)c2c1 (stereo not given) | inactive: -1.21% |  |
| CCC(C)Sc1ccc(-c2nc3cnccn3c2NC2CCCCC2)cc1 (stereo not given) |  | inconclusive: 22.4 µM [inhibitor, single point] |
| COC(=O)c1nnn(-c2nonc2N)c1CN1CCc2ccccc21 |  | inconclusive: 7.94 µM [inhibitor, partial curve, poor fit] |
| Cc1cc(C)n(-c2nnc3n2N=C(c2c[nH]c4ccccc24)CS3)n1 |  | inconclusive: 5.62 µM [inhibitor, full curve, poor fit] |
| Cn1c(CSCc2ccc(Cl)cc2Cl)n[nH]c1=S | inactive: 0.183% |  |
| CCOc1ccccc1NC(=O)c1nc(S(=O)(=O)Cc2ccccc2)ncc1Cl |  | inconclusive: 22.4 µM [inhibitor, single point] |
| O=C(CCN1C(=O)c2ccccc2S1(=O)=O)Nc1ccccc1F | inactive: 1.46% |  |
| CCCN1C(=O)/C(=C/c2ccc(N3CCCC3)c(C)c2)NC1=S |  | inconclusive: 5.62 µM [inhibitor, single point] |
| CSc1nccc(-c2nn(-c3ccc(C)cc3)ccc2=O)n1 |  | inconclusive: 7.08 µM [inhibitor, partial curve, poor fit] |
| CCOc1cc(/C=C(\C#N)c2nc(-c3cccs3)c(NC(C)=O)s2)ccc1O |  | inconclusive: 0.794 µM [inhibitor, full curve, poor fit] |
| COc1ccc(CCC(=O)NO)cc1 | inactive: 1.27% |  |
| C=C(C)COc1ccc(-c2[nH]ncc2-c2ccc(Br)cc2)c(O)c1 |  | inconclusive: 3.98 µM [inhibitor, single point] |
| CCCn1c(NCc2ccccc2NS(=O)(=O)c2ccc(C)cc2)nc2ccccc21 |  | inconclusive: 11.2 µM [inhibitor, single point] |
| COc1ccc(C)cc1NC(=O)CNc1ccc(C(C)=O)cc1 |  | inconclusive: 35.5 µM [inhibitor, single point] |
| COc1ccc(NC(=O)c2cc3ccccc3o2)cc1OC | inactive: 1.29% |  |
| CC(=O)Oc1oc(-c2ccccc2)nc1/C=N/c1ccccn1 | inactive: -1.06% |  |
| CC(C)OP(=O)(OC(C)C)C(NC(=O)c1ccc(Br)cc1)c1ccccc1 (stereo not given) |  | inconclusive: 25.1 µM [inhibitor, single point] |
| Cc1ccc2nc(N3C(=O)C(O)=C(C(=O)c4ccco4)C3c3ccc(C)o3)sc2c1 (stereo not given) | inactive: 3.36% |  |
| NC(=O)CC(NC(=O)Cc1cccc2ccccc12)c1ccc(NCc2ccc(F)c(F)c2)c([N+](=O)[O-])c1 (stereo not given) |  | inconclusive: 35.5 µM [inhibitor, single point] |
| O=C(O)C(=O)/C(=C\c1cccc2ccccc12)c1ccc2ccccc2n1 |  | inconclusive: 12.6 µM [inhibitor, partial curve, poor fit] |
| C[C@H](O)[C@@H]1CN2CCc3c([nH]c4ccc(-c5ccc6c(c5)OCO6)cc34)[C@@H]2C[C@@H]1N(C)C(=O)Nc1ccc(F)cc1 |  | inconclusive: 3.98 µM [inhibitor, single point] |
| O=C1CC(c2cccs2)c2cc3c(cc2N1)OCCO3 (stereo not given) |  | inconclusive: 28.2 µM [inhibitor, single point] |

| SMILES | activity, negative = active | Potency |
| --- | --- | --- |
| O=c1[nH]c2c(-c3nc(-c4ccc(Cl)cc4)cs3)c(O)cn2c2ccccc12 | inactive: -1.68% |  |
| COc1cc(/C=C/C(=O)c2ccc(Cl)s2)cc(OC)c1O |  | inconclusive: 22.4 µM [inhibitor, single point] |
| COc1ccc(N(CC(=O)Nc2ccccc2OC)S(=O)(=O)c2ccc(NC(C)=O)cc2)cc1 |  | inconclusive: 3.55 µM [inhibitor, full curve] |
| O=C1/C(=C/c2ccccn2)COc2ccccc21 | inactive: -1.66% |  |
| CCS(=O)(=O)N1N=C(c2ccc(C)cc2)CC1c1cc2ccc(OC)cc2nc1Cl (stereo not given) |  | inconclusive: 15.8 µM [inhibitor, partial curve, poor fit] |
| Cc1cccc(N2CCN(C(=O)c3cc(S(=O)(=O)N(C)C)ccc3N3CCCC3)CC2)c1C | inactive: -3.31% |  |
| COc1ccc(OC)c(NC(=O)CSc2c3c(nc4ccccc24)CCCC3)c1 | inactive: -27.3% |  |
| Cc1cc(=O)[nH]c(SCc2cn3ccccc3n2)n1 | inactive: -0.431% |  |
| Cc1cc(C(F)(F)F)n2nc(C(=O)O)c(Cl)c2n1 | inactive: 1.21% |  |
| OC[C@H](S)CS | inactive: -23.5% |  |
| COc1cc(-c2noc(C)c2C#Cc2ccccn2)cc(OC)c1OC |  | inconclusive: 1.41 µM [inhibitor, full curve] |
| O=C(N/N=C/c1ccccn1)c1ccc(Cl)cc1 | inactive: -1.06% |  |
| O=C(C[n+]1c2ccccc2cc2ccccc21)c1ccc(F)cc1 | inactive: 5.3% |  |
| COc1cc(/C=C/c2ccnc3ccccc23)ccc1N(C)C |  | inconclusive: 3.55 µM [inhibitor, partial curve, poor fit] |
| COc1ccc(C(C(=O)NC2CCCCC2)N(C(=O)CCl)c2cccc(Cl)c2)cc1 (stereo not given) |  | inconclusive: 28.2 µM [inhibitor, single point] |
| CNc1ccc(Br)cc(C(=O)/C=C/c2ccc3c(c2)OCO3)c1=O |  | inconclusive: 35.5 µM [inhibitor, single point] |
| CC(=O)Nc1ccc(C(=O)CSc2nc3ccccc3n2CC(=O)N2CCCC2)cc1 | inactive: 3.24% |  |
| O=C(Nc1ccc(-c2csc(Nc3cccc(C(F)(F)F)c3)n2)cc1)c1ccccc1 |  | inconclusive: 28.2 µM [inhibitor, single point] |
| O=C1C=CC(O)(c2cc(=O)c3c(O)cc(O)cc3o2)C=C1 |  | inconclusive: 3.16 µM [inhibitor, full curve, poor fit] |
| Cc1ccc(C)c(C2NC(=O)c3ccccc3N2)c1 (stereo not given) |  | inconclusive: 1 µM [inhibitor, full curve, poor fit] |
| COc1ccc(F)cc1CSc1nnnn1-c1ccc(O)cc1 |  | inconclusive: 3.98 µM [inhibitor, partial curve, poor fit] |
| Nc1c(C(=O)c2ccc(Cl)cc2)sc2nsc(SCCN3CCOCC3)c12 |  | inconclusive: 3.16 µM [inhibitor, partial curve, poor fit] |
